Results taken from EPA's CvTdb concentration-time database.
This continues a long series; more values of the same kind are listed elsewhere.

Legend:
Assay in all cases: concentration in plasma after dosing
Rat [1] = conditions: dosed: Perfluorooctane Sulfonate, 20 mg/kg, oral, Female, F344
Rat [2] = conditions: 24 h; dosed: Perfluorooctane Sulfonate; 20 mg/kg; oral; Female; F344
Rat [3] = conditions: dosed: Perfluorooctane Sulfonate, 2 mg/kg, oral, Female, Harlan Sprague Dawley
Rat [4] = conditions: 3360 h; dosed: Perfluorooctane Sulfonate; 20 mg/kg; oral; Male; Harlan Sprague Dawley
Rat [5] = conditions: 24 h; dosed: Perfluorooctane Sulfonate; 2 mg/kg; oral; Female; Harlan Sprague Dawley
Rat [6] = conditions: dosed: Perfluorodecanoic acid, 2 mg/kg, oral, Male, Harlan Sprague Dawley
Rat [7] = conditions: dosed: Perfluorodecanoic acid, 10 mg/kg, oral, Female, Harlan Sprague Dawley
Rat [8] = conditions: 24 h; dosed: Perfluorodecanoic acid; 10 mg/kg; oral; Female; Harlan Sprague Dawley
Rat [9] = conditions: dosed: Perfluorodecanoic acid, 20 mg/kg, oral, Female, Harlan Sprague Dawley
Rat [10] = conditions: 24 h; dosed: Perfluorodecanoic acid; 10 mg/kg; oral; Male; Harlan Sprague Dawley
Rat [11] = conditions: dosed: Perfluorodecanoic acid, 2 mg/kg, oral, Male, Harlan Sprague Dawley; remark: listed apart in the source
Rat [12] = conditions: dosed: Perfluorooctanoic acid, 40 mg/kg, oral, Male, Harlan Sprague Dawley
Rat [13] = conditions: 1 h; dosed: Fluorotelomer alcohol 8+2; 80 mg/kg; oral; Female; Harlan Sprague Dawley
Rat [14] = conditions: 12 h; dosed: Perfluorooctanoic acid; 80 mg/kg; oral; Female; Harlan Sprague Dawley
Rat [15] = conditions: 1200 h; dosed: Perfluorooctanoic acid; 12 mg/kg; oral; Male; Harlan Sprague Dawley
Rat [16] = conditions: dosed: Perfluorooctanoic acid, 80 mg/kg, oral, Female, Harlan Sprague Dawley
Rat [17] = conditions: dosed: Fluorotelomer alcohol 8+2, 40 mg/kg, oral, Female, Harlan Sprague Dawley
Rat [18] = conditions: 1 h; dosed: Perfluorooctanoic acid; 12 mg/kg; oral; Male; Harlan Sprague Dawley
Rat [19] = conditions: 3 h; dosed: Fluorotelomer alcohol 8+2; 160 mg/kg; oral; Female; Harlan Sprague Dawley
Rat [20] = conditions: dosed: Perfluorooctanoic acid, 48 mg/kg, oral, Male, Harlan Sprague Dawley
Rat [21] = conditions: dosed: Fluorotelomer alcohol 8+2, 48 mg/kg, oral, Male, Harlan Sprague Dawley
Rat [22] = conditions: dosed: Fluorotelomer alcohol 8+2, 160 mg/kg, oral, Female, Harlan Sprague Dawley
Rat [23] = conditions: dosed: Perfluorooctanoic acid, 48 mg/kg, oral, Male, Harlan Sprague Dawley; remark: listed apart in the source
Rat [24] = conditions: 3 h; dosed: Fluorotelomer alcohol 8+2; 80 mg/kg; oral; Female; Harlan Sprague Dawley
Rat [25] = conditions: dosed: Fluorotelomer alcohol 8+2, 160 mg/kg, oral, Female, Harlan Sprague Dawley; remark: listed apart in the source
Rat [26] = conditions: 12 h; dosed: Perfluorooctanoic acid; 12 mg/kg; oral; Male; Harlan Sprague Dawley
Rat [27] = conditions: 6 h; dosed: Fluorotelomer alcohol 8+2; 24 mg/kg; oral; Male; Harlan Sprague Dawley
Rat [28] = conditions: dosed: Fluorotelomer alcohol 8+2, 24 mg/kg, oral, Male, Harlan Sprague Dawley
Rat [29] = conditions: dosed: Perfluorooctanoic acid, 320 mg/kg, oral, Female, Harlan Sprague Dawley
Rat [30] = conditions: 3 h; dosed: Perfluorooctanoic acid; 80 mg/kg; oral; Female; Harlan Sprague Dawley
Rat [31] = conditions: dosed: Perfluorooctanoic acid, 6 mg/kg, iv, Male, F344
Rat [32] = conditions: dosed: Perfluorooctanoic acid, 6 mg/kg, oral, Male, Harlan Sprague Dawley
Rat [33] = conditions: 0.5 h; dosed: Fluorotelomer alcohol 8+2; 160 mg/kg; oral; Female; Harlan Sprague Dawley
Rat [34] = conditions: 24 h; dosed: Perfluorooctanoic acid; 80 mg/kg; oral; Female; Harlan Sprague Dawley

O=S(=O)([O-])C(F)(F)C(F)(F)C(F)(F)C(F)(F)C(F)(F)C(F)(F)C(F)(F)C(F)(F)F [Perfluorooctane Sulfonate]
concentration in plasma [ng/mL]
Conditions	1 h	12 h	528 h	1200 h	2520 h
Rat [1]	–	139000	–	35000	–
Rat [3]	3330	–	2240	–	373

Conditions	concentration in plasma [ng/mL]
Rat [2]	85800
Rat [4]	1370
Rat [5]	6530

O=C(O)C(F)(F)C(F)(F)C(F)(F)C(F)(F)C(F)(F)C(F)(F)C(F)(F)C(F)(F)C(F)(F)F [Perfluorodecanoic acid]
Conditions	concentration in plasma [ng/mL]
Rat [6], 6 h	7240
Rat [6], 864 h	2910
Rat [7], 0.5 h	14900
Rat [7], 192 h	54400
Rat [7], 1848 h	9140
Rat [9], 2 h	65200
Rat [9], 528 h	42200
Rat [9], 3360 h	3630
Rat [11], 2 h	6370
Rat [11], 528 h	4050
Rat [11], 3360 h	703

Conditions	concentration in plasma [ng/mL]
Rat [8]	54600
Rat [10]	39400

O=C(O)C(F)(F)C(F)(F)C(F)(F)C(F)(F)C(F)(F)C(F)(F)C(F)(F)F [Perfluorooctanoic acid]
Conditions	concentration in plasma [ng/mL]
Rat [12], 1 h	113000
Rat [12], 12 h	64400
Rat [16], 0.25 h	154000
Rat [16], 9 h	293000
Rat [17], 0.5 h	571
Rat [17], 9 h	922
Rat [20], 3 h	196000
Rat [20], 24 h	259000
Rat [20], 1200 h	2880
Rat [21], 0.75 h	457
Rat [21], 12 h	2320
Rat [22], 0.75 h	1140
Rat [22], 12 h	3700
Rat [23], 3 h	228000
Rat [23], 192 h	72100
Rat [23], 1200 h	5360
Rat [25], 0.75 h	1400
Rat [25], 12 h	4460
Rat [28], 0.25 h	17.8
Rat [28], 24 h	1110
Rat [29], 6 h	341000
Rat [29], 48 h	56700
Rat [31], 1 h	46800
Rat [31], 24 h	48300
Rat [31], 1200 h	841
Rat [32], 0.25 h	9660
Rat [32], 6 h	52600
Rat [32], 528 h	6980

Conditions	concentration in plasma [ng/mL]
Rat [13]	703
Rat [14]	75700
Rat [15]	2990
Rat [18]	39800
Rat [19]	4530
Rat [24]	3220
Rat [26]	83000
Rat [27]	726
Rat [30]	26500
Rat [33]	397
Rat [34]	8720
